Test results published in patent publication US20200223933A1 (APTEVO RESERCH AND DEVELOPMENT, published 2020).

Tests used:
[1] = target: T1, human CD137 on cells (human, UniProt Q07011 24-255); assay: flow cytometry, CD8 T cells gated from CD3-stimulated human PBMC, exp 1, n=3 donors
T1 construct: On CHO-K1 transfectants, Jurkat/CD137 reporter cells and CD3-stimulated primary human T cells; also called human 4-1BB; TNFRSF9
Procedure: FACS staining and analysis of CD8 T cells: Following 48 h of incubation with or without CD3, human and cynomolgus PBMC were harvested, pooled, recounted and diluted in FACS buffer (PBS +0.5% BSA, 0.05% NaN₃) to a concentration of 5×10⁶ cells/mL. 50 μL (0.25×10⁶ cells) of cell solution was added to a 96-well FACS staining plate (Falcon #351190). Following 10 min of Fc-blocking in RT using Beriglobin (hIgG, 200 μg/mL), cells were washed in FACS buffer and then incubated for 1 h in 4° C. with 100 μL of the biotinylated ALG.APV-210 or negative control. The antibodies were added in a serial dilution starting either at 5 μg/mL titrating down in a 12 step 1/3 dilution down to 0.0003 μg/mL (exp 1) or 1 μg/mL titrating down in a 12 step 1/2 dilution down to 0.0005 μg/mL (exp 2). […] Cells were analysed for ALG.APV-210 binding using flow cytometry by gating on viable, single cells expressing CD3 and CD8. MFI values (FMO subtracted) from 2 independent experiments as well as normalized pooled data from 2 experiments and EC₅₀-values were determined and plotted using GraphPad Prism 7, non-linear regression log (agonist) vs. normalized response—variable slope, n=6 donors/group.

[2] = target: T2, cynomolgus CD137 on cells (cynomolgus macaque, UniProt A9YYE7 24-254); assay: flow cytometry, CD8 T cells gated from CD3-stimulated cynomolgus PBMC, exp 1, n=3 donors
T2 construct: whole, on cells; also called cynomolgus macaque CD137; cynomolgus 4-1BB
Procedure: Isolation and stimulation of cynomolgus PBMC: Cynomolgus PBMC were isolated from 20 mL of cynomolgus monkey blood from 3 different donors, obtained from Silabe, France by density gradient centrifugation using Lympholyte-mammal (Cedarlane labs) according to manufacturer's instructions. Non-tissue treated 96 well plates were pre-coated overnight at 4° C. with 3 μg/mL α-monkey CD3, clone FN-18 (Invitrogen #APS0301). The cynomolgus PBMC were then stimulated identically as the human PBMC described above
FACS staining and analysis of CD8 T cells: Following 48 h of incubation with or without CD3, human and cynomolgus PBMC were harvested, pooled, recounted and diluted in FACS buffer (PBS +0.5% BSA, 0.05% NaN₃) to a concentration of 5×10⁶ cells/mL. 50 μL (0.25×10⁶ cells) of cell solution was added to a 96-well FACS staining plate (Falcon #351190). […] Cells were analysed for ALG.APV-210 binding using flow cytometry by gating on viable, single cells expressing CD3 and CD8. MFI values (FMO subtracted) from 2 independent experiments as well as normalized pooled data from 2 experiments and EC₅₀-values were determined and plotted using GraphPad Prism 7, non-linear regression log (agonist) vs. normalized response—variable slope, n=6 donors/group.

T2 sequence (A9YYE7 entry or part of it): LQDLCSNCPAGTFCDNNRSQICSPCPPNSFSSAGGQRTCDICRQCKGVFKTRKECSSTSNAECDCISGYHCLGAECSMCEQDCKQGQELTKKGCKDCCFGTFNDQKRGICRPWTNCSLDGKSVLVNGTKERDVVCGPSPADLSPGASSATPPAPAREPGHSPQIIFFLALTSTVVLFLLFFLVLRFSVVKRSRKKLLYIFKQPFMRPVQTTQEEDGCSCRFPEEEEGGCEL
T1 sequence (Q07011 24-255 limits assumed): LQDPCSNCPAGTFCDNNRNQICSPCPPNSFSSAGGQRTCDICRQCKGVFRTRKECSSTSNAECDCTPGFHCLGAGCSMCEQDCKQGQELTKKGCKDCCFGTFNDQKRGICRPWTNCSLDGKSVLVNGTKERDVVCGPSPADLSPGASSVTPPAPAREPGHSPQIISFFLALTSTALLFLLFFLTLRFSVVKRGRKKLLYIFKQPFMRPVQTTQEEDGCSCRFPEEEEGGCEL

- binding result [1]: no binding (tested: about 30 nM)
- binding result [2]: no binding (tested: about 30 nM)
B1: biotinylated ANC017 (other)
chain: [letters of about 100 residues left out]GSGSYFDLWGQGTLVTVSSGGGGSGGGGSGGGGSGGGGSDIQMTQSPSFLSASVGDRVTITCRASQSISSYLNWYQQKPGKAPKLLIYAASSLQSGVPSRFSGSGSGTDFTLTISSLQPEDFATYYCQQYSGYPYTFGQGTKLEIKSSEPKSSDKTHTCPPCPAPEAAGAPSVFLFPPKPKDTLMISRTPEVTCVVVDVSHEDPEVKFNWYVDGVEVHNAKTKPREEQYNSTYRVVSVLTVLHQDWLNGKEYKCAVSNKALPAPIEKTISKAKGQPREPQVYTLPPSRDELTKNQVSLTCLVKGFYPSDIAVEWESNGQPENNYKTTPPVLDSDGSFFLYSKLTVDKSRWQQGNVFSCSVMHEALHNHYTQKSLSLSPGSGGGGSGGGGSGGGGSPS[letters of about 100 residues left out]GSGSYFDLWGQGTLVTVSSGGGGSGGGGSGGGGSGGGGSDIQMTQSPSFLSASVGDRVTITCRASQSISSYLNWYQQKPGKAPKLLIYAASSLQSGVPSRFSGSGSGTDFTLTISSLQPEDFATYYCQQYSGYPYTFGQGTKLEIKRS
modifications: biotinylated (sites not given)
notes: Antibody in the ADAPTIR format with the same framework as ALG.APV-210 (germline CDRs), used as negative control and also biotinylated; The name is printed as ANC017, ANC107 and ACN017; also called ANC107; ACN017
